Test results as given in PubChem BioAssay AID488969 (Vanderbilt High Throughput Screening Facility, 2010).
Whole data set: some 110,000 compounds, median “z-score” near -0.1, cut for the highest 2% near 2. The list shows a part of the results.

The compounds below were run against Metabotropic glutamate receptor 8 (Rattus norvegicus) (UniProt P70579) (assay: mGluR8 Gi/Go-coupled signaling modulation – cell-based, rat, thallium flux, HTS, primary screen (AID 488969)). Details: HEK293 rat mGluR8, GIRK (G protein-gated inwardly rectifying potassium channel) thallium flux, FluoZin2; at 10 µM; stronger effect = higher value; submaximal glutamate (EC20) added with thallium.
Chain of UniProt P70579 (P70579 whole entry, looked up): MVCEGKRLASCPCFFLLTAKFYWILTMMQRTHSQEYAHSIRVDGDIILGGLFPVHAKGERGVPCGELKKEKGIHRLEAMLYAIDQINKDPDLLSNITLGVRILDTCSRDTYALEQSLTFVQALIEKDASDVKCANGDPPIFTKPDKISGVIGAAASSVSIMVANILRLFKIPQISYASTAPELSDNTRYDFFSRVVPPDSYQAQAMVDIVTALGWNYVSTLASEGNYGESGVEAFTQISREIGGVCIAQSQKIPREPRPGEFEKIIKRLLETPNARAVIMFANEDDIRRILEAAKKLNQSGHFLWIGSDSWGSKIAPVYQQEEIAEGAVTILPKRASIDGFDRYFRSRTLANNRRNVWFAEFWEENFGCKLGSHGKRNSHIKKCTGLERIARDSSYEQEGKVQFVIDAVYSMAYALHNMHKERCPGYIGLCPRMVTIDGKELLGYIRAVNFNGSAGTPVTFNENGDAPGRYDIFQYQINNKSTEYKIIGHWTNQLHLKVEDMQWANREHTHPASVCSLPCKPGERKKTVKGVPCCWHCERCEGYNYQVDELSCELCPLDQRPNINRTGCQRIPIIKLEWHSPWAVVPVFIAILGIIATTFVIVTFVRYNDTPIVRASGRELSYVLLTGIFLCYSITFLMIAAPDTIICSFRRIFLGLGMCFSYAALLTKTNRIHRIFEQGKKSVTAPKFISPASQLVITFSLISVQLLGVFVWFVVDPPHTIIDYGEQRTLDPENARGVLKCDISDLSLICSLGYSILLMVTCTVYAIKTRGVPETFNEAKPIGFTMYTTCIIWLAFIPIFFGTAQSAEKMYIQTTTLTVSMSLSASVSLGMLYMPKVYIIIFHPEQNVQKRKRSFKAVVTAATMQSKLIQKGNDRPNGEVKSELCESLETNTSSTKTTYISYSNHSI

SMILES | z-score
CCN(c1ccccc1)S(=O)(=O)c1ccc(N)cc1 | -0.101
Cc1cc(C)cc(NC(=O)c2ccc(CSc3nnnn3C)cc2)c1 | -0.11
Cc1cc(S(=O)(=O)Nc2ccc(N(C)C)cc2)c(C)s1 | -0.29
Cc1cccc(OCC(O)CN2C(C)(C)CC(O)CC2(C)C)c1C (stereo not given) | 1.1
O=C(CC1CCS(=O)(=O)C1)Nc1ccc[nH]c1=O (stereo not given) | 0.248
O=C(NC(NCc1ccccc1)C(Cl)(Cl)Cl)c1cccnc1 (stereo not given) | -0.0249
O=C(CCOc1ccccc1)Nc1ccccc1 | 0.347
COc1cccc(C(=O)NCc2nnc(SCC(=O)Nc3nccs3)n2-c2ccccc2)c1 | 0.352
CCC(C)(C)n1nnnc1C(c1ccc(C)cc1)N1CCCC1 (stereo not given) | -0.205
Cn1nc(C(=O)Nc2ccc(S(=O)(=O)N3CCCCC3)cc2)ccc1=O | 0.0197
Cc1cccc(C2CC(c3ccccc3)Nc3ncnn32)c1 (stereo not given) | -0.681
CCOC(=O)c1nc(N)sc1C(=O)OCC | 0.00494
COc1ccccc1NC(=O)CN1CCN(c2ccccn2)CC1 | 0.103
CC(=O)Nc1ccc(S(=O)(=O)NC2=C(N3CCN(c4ccc(F)cc4)CC3)C(=O)c3ccccc3C2=O)cc1 | -0.134
Nc1ccc2oc(-c3ccccc3Cl)nc2c1 | -0.165
CCOP(=O)(c1ccc(N(C)C)cc1)C(O)c1cc(OC)c(OC)c(OC)c1 (stereo not given) | 0.0659
CC1CN(C(=O)Cn2cnc3c2c(=O)n(C)c(=O)n3C)CC(C)O1 (stereo not given) | -0.083
Cc1ccc(NC(=O)C2=C(O)c3sccc3N(C)S2(=O)=O)cc1 | -0.146
COc1ccc(/C=N/NC(=O)c2cccc(OC(F)(F)C(F)F)c2)c(OC)c1OC | -0.825
COc1ccc(S(=O)(=O)N2CCCCCC2)cc1N(C)S(=O)(=O)c1ccc(Cl)cc1 | -0.418
CCOC(=O)C1=C(C)NC(C)=C(C(=O)OCC)C1 | -0.207
CCOc1ccc(Br)cc1S(=O)(=O)Nc1ccc(C(=O)OC(C)C(=O)N(C)c2ccccc2)cc1 (stereo not given) | 0.235

SMILES | z-score
CCOC(=O)/C(C#N)=C1/C=Nc2ccccc2N1 | -0.373
CC(=O)Oc1ccc2c(=O)c(N3C(=O)c4ccccc4C3=O)c(C)oc2c1 | 0.0564
O=C(Cn1ncc(Cl)c(Cl)c1=O)c1ccc(Cl)cc1 | -0.917
Cc1ccc(S(=O)(=O)N(C)c2ccc(OCC(=O)Nc3nc4ccccc4s3)cc2)cc1 | 0.0641
COc1ccc(-c2c3c(=O)n(C)c(=O)n(C)c3cn2N2CCOCC2)cc1 | -0.115
O=c1cc(CSc2nnnn2-c2ccccc2)nc2scc(-c3ccccc3)n12 | -0.201
COC(C(=O)Nc1ccc(C(C)=O)cc1)c1ccccc1 (stereo not given) | 0.0497
Cc1ccc(C)n1NC(=O)c1ccco1 | 0.486
Cn1c(SCC(=O)Nc2ccc(N3CCOCC3)c(Cl)c2)nnc1C(O)c1ccccc1 (stereo not given) | -0.431
O=C(Nc1cc(C(F)(F)F)ccc1Cl)C(=O)N1CCCCC1 | -0.202
O=C(COC(=O)Cn1cnc2ccccc2c1=O)Nc1cc(Cl)ccc1[N+](=O)[O-] | -0.239
COC(=O)c1cccc(Nc2ncnc3ccc(C)cc23)c1 | 0.325
O=S(=O)(Nc1nc2ccccc2nc1N1CCc2ccccc2C1)c1ccc(Br)cc1 | 1.69
CCOC(=O)c1[nH]c2ccc(F)cc2c1NC(=O)C(C)N1CCc2cc(OC)c(OC)cc2C1 (stereo not given) | -0.63
O=C(/C=C/NNC(=O)c1ccccc1)c1ccccc1 | -0.131
O=C(Cc1ccc(Cl)cc1)Nc1cccc(S(=O)(=O)Nc2ccccc2F)c1 | 0.371
Oc1ccc(/C=C/c2nc(-c3ccccc3O)n(-c3ccccc3)n2)cc1 | -0.372
Cc1nnc(SCC(=O)NCc2cccs2)n1-c1ccccc1 | -0.0136
COc1cccc(C(=O)NCCCN2CCN(CCCNC(=O)c3cccc(OC)c3)CC2)c1 | -0.114
O=C(CSc1nnc(-c2c[nH]c3ccccc23)o1)c1ccc(-c2ccccc2)cc1 | -0.253
Cc1cc(=O)[nH]c(/N=C(/NC(=O)c2ccccc2)Nc2ccc3c(c2)OCCO3)n1 | 0.312
COc1ccccc1N1CCN(C(=O)c2cc3sccc3n2C)CC1 | -0.963

SMILES | z-score
CCOCCCN1CC(C(=O)NCCc2ccc(C)cc2)CC1=O (stereo not given) | -0.0509
COc1ccc2nc(NC(=O)CSc3nnc4n3C(C)(C)Cc3ccccc3-4)sc2c1 | -0.0177
Brc1ccccc1OCCCN1CCOCC1 | -0.502
CC1=NN(C(=O)c2ccc(Cn3nc(C)c([N+](=O)[O-])c3C)cc2)C(O)(C(F)(F)F)C1 (stereo not given) | -0.0799
Cc1nc2ccccc2nc1SCC(=O)c1ccccc1 | -0.178
CSc1ncccc1C(=O)Nc1nc2c(C)cccc2s1 | 0.518
O=S(=O)(NCc1ccco1)c1ccc2c(c1)Cc1ccccc1-2 | 1.46
CCCCOc1ccc(-c2nc(=S)[nH][nH]2)cc1 | 0.294
COc1cc(-c2[nH]nc3c2C(c2ccoc2)C(C#N)=C(N)O3)cc(OC)c1OC (stereo not given) | -0.355
CCN1CCN(CCCCOc2ccccc2F)CC1 | 0.0641
CCCN(CCC)CCNC(=O)C1CC(=O)N(c2ccc(OC)cc2)C1c1ccc(OC)cc1 (stereo not given) | -0.547
Cc1cc(-c2ccccc2)[nH]c(=O)c1S(=O)(=O)c1ccccc1 | -0.0134
CCCC(=O)N1CCN(c2ccc(NC(=O)c3sc4ccccc4c3Cl)cc2)CC1 | -0.318
COc1ccc(C(c2nnnn2CC2CCCO2)N2CCC(C(N)=O)CC2)cc1 (stereo not given) | 0.0457
Cc1c(Br)c([N+](=O)[O-])nn1CC(=O)N1CCc2ccccc2C1 | 0.185
CCc1nc(SCc2nc3ccccc3[nH]2)c2oc3ccccc3c2n1 | -0.749
CC(c1nnc(Sc2nnnn2-c2ccccc2)n1-c1ccc(F)cc1)N(C)C (stereo not given) | -0.321
O=C(CCc1ccccc1)N1CCN(c2ccc(Cl)cc2)CC1 | 0.502
O=C(Cn1c(C(F)(F)F)nc2ccccc21)c1ccc(F)cc1 | -0.0983
CN1CCN(CCC(=O)Nc2ccccc2Cl)CC1 | -0.25
O=C(Nc1ccc2ccccc2c1)c1cn(-c2ccccc2)nc1-c1cccs1 | -0.0665
Cn1cccc1CC(=O)NNC(=O)Nc1cccc(Cl)c1 | 0.0701

SMILES | z-score
O=C(Nc1nccs1)c1cc(Cl)ccc1[N+](=O)[O-] | -0.122
O=C(Cn1nnc2ccccc2c1=O)Nc1cc(C(F)(F)F)ccc1N1CCOCC1 | 0.203
O=C(N/N=C/C(Br)=C\c1ccccc1)c1n[nH]c2c1CCC2 | 0.919
Cc1ccccc1-n1c(C)cc(/C=N/NC(=O)c2ccncc2)c1C | -0.537
O=C1c2ccccc2C(=O)N1CCCCN(C(=O)c1ccco1)c1ccc(Cl)cc1 | 0.221
CCCCCOc1ccc(C2C(C(C)=O)=C(C)Nc3ncnn32)cc1OC (stereo not given) | 0.462
O=C(CCSCc1cccc(Cl)c1)NCCc1ccccc1 | 0.461
COc1ccc(Cl)cc1NC(=O)COC(=O)CNC(=O)c1ccc([N+](=O)[O-])c(C)c1 | -0.184
NC(=O)C1CCN(c2nc(C3CC3)nc3c2nnn3Cc2ccccc2Cl)CC1 | 0.157
Cc1nn(-c2cc(N3CCOCC3)ccc2[N+](=O)[O-])c(=O)c2ccccc12 | -0.115
Cc1ccc(N(CC(=O)N/N=C/c2cc(C)n(-c3ccccc3C)c2C)S(C)(=O)=O)cc1 | -0.0921
COc1ccc2[nH]c(N=Nc3ccccc3C)c(O)c2c1 | 0.373
COc1cc([N+](=O)[O-])ccc1-c1ccc(C(=O)Nc2ccc(NC(C)=O)cc2)o1 | -0.195
Cc1cc(C)c(S(=O)(=O)N2CCC(C(N)=O)CC2)cc1C | 0.82
COc1cc(NC(=S)N2CCN(Cc3ccccc3)CC2)cc(OC)c1 | -0.424
COc1ccc(-c2csc(Cc3nnc4n3CCCCC4)n2)cc1OC | -0.391
O=C(Nc1ccc2nc3n(c(=O)c2c1)CCCCC3)c1ccccc1Cl | -0.529
O=c1c2cccc3c2c(nn1-c1ccccc1)-c1ccccc1-3 | -0.249
CSc1ccccc1NC(=O)CN(C)S(=O)(=O)c1ccc(F)cc1 | -0.156
CCC(=S)/C=C1\Sc2ccc3ccccc3c2N1CCCS(=O)(=O)O | -0.78
CCOC(=O)N1CCN(Cc2cc(=O)oc3ccc4ccccc4c23)CC1 | -0.627
C=CCN(c1ccccc1)S(=O)(=O)c1cccc(C(=O)O)c1 | -0.576

SMILES | z-score
Cc1ccc(NC(=O)c2sc(Cl)nc2-c2ccccc2)cc1C | -0.118
CC(C)(C)C(=O)Nc1ccccc1C(=O)Nc1ccccn1 | -0.101
Cc1ccc(-c2cnc(SCC(=O)N3CCCc4ccccc43)n2C)cc1 | -0.31
CCn1c(=O)cc(OCC(=O)N(C)c2ccccc2F)c2ccccc21 | 0.162
O=C(NC(C(=O)NCCN1CCOCC1)C12CC3CC(CC(C3)C1)C2)C1CCCCC1 (stereo not given) | -0.279
CN1CCN(C(=S)Nc2ccccc2Cl)CC1 | -0.357
Cc1ccc(NC(=O)Cn2cccc2)c(C)c1 | -0.101
Cc1ccc(/C=C/C(=O)N2CC(C)CC(C)C2)o1 (stereo not given) | -0.269
COc1ccccc1N1CCN(S(=O)(=O)c2ccc(Br)s2)CC1 | -0.245
COc1ccc(/C=N/Nc2cc(=O)n(C)c(=O)n2C)cc1OC | -1.56
Cc1[nH]nc(SCC(=O)N2CCCCC2)c1[N+](=O)[O-] | -0.427
CC1C2CC(C(S(=O)(=O)N3CCOCC3)C2=O)C1(C)C (stereo not given) | 0.656
Cc1ccc(C(=O)Nc2cccc(C(=O)NCc3ccco3)c2)cc1 | -0.23
Cc1nc(NC(=O)c2ccccc2)sc1-c1csc(N)n1 | -0.623
COc1ccc(-c2coc3cc(OC)cc(O)c3c2=O)cc1 | 0.644
COc1ccc(C2/C(=C(/O)c3ccccc3)C(=O)C(=O)N2CO)cc1 (stereo not given) | 0.305
COc1ccc(NC(=S)NCCSc2ccc(Cl)cc2)c(OC)c1 | -0.0802
Cc1ccc(-n2c(=S)[nH]c3c(oc4ccccc43)c2=O)cc1C | 1.14
O=C(COC(=O)CNC(=O)c1ccco1)Nc1ccc(Cl)cn1 | -0.0507
O=C(Cn1nc([N+](=O)[O-])nc1Br)NC(c1ccccc1)c1ccccc1 | -0.103
COc1ccc(CNC(=O)C(c2ccc(C)o2)N(C(=O)c2csnn2)c2ccc(C(C)C)cc2)cc1 (stereo not given) | -0.548
COc1ccc(NC(=O)C2CC(=O)OC23CCCCC3)cc1 (stereo not given) | 1.22
